Reference: publication PMC10726135
The list shows a part of the results. At the low end of the ranking the order means little. The protein was read in a cell extract, so binding may be indirect.

The sequences below were run against T1, HNF4alpha2 (COS-7 nuclear extract) (UniProt P41235) (assay: protein-binding microarray). Conditions: COS-7 nuclear extract on double-stranded Agilent 4x180k PBM; binding buffer, salt, pH and temperature not given; high values mean tight binding; double strand, one strand shown; sequences stand for … in …GCCTAGGGAGATTAGAGTATCGGTCGA.
T1 sequence: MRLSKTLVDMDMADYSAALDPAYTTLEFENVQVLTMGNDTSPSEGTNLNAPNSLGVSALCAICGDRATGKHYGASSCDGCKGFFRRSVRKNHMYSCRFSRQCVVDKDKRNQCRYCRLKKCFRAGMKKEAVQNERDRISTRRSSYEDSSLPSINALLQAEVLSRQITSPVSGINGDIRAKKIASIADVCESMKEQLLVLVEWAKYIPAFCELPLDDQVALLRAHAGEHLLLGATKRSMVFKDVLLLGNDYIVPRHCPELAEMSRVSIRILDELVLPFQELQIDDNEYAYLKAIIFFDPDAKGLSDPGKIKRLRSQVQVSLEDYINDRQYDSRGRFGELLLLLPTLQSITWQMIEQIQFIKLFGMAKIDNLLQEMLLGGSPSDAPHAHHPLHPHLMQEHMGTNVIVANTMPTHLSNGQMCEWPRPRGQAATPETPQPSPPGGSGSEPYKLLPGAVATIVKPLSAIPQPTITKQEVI

Sequence | binding signal (log2 normalized intensity)
CAGGTCTCTTTTATGTACCACCGTATTCCT | 1.45
ATGGTTAAGGTGAAAGTCCGACTTTTAAGA | 3.23
AAAAGCTTTTCTTCCCCCCTCCCTCCGCAA | 5.71
CTGAACCTTGCACTATTGACCCAGTGAAAC | 2.82
CATTTTACAGTGCCATTTATCAGTGATTTC | 0.854
CTTCCCTAAGCAGCTGCAGTTTCTGCTATC | -1.14
GCCGGGAAGATGCCAGCCCCGAGATAACCC | 3.22
GGGAATGGCTCGTATGAATGTGGGAAGCTG | -1.13
CGGTCACATTCCACTCAGTCTCTTGAAATC | 0.656
CCTCCTCCTTGGCTCTCCCCACTTACTTCC | 2.29
GGTCGGGGAGGTGTTTATCTTGTGGTTGGA | 2.4
GCCTGAACTGACTGCATTCCCTTTCTCCTC | -1.12
ATTTATCAAGATGAACTTTGACCCACCTAC | 8.26
AGAGAGAGGTGGGCAAAGGTCTCAAGGCCT | 1.58
TCAAATATTTGGATAATGTGCCCTTTGTAC | 6.6
AGAGAACTGAAAAAGGGGACCGGCCTTTCC | -1.17
CTGTGTCTTGGCAGTGATCAGTGTTGAGAA | 1.27
TACAGAGTATAATAAAGTGGCAACCCTTGA | 1.12
TTACTCATGTGGTCCTAAGACTAACCTTTG | 3.37
ATAAGTTTTCTCATAAAACACCCACCTTGT | -0.452

Sequence | binding signal (log2 normalized intensity)
TGAAAAGAGTGATCTTTGGGCCATATTGAC | 1.15
GCCTGAATGCAGGGAGCAGAGTCCCAAGCA | -1.1
ACAGTAAAGAACAAACTTCCCCTGCAGCTG | -1.12
TGGTCCCATAGGAAAGTGAGCATGGGCTTA | -1.06
AAGTGACTTCAAGGGAGTAAAGGTCGTTCT | 5.01
GTAGACACTCATCCCTTGCACTGCTCAGGG | -0.883
GCGGAAGCACACACGAGCTGTGCGCTTAGT | -1.14
GGCGGGGCAGCAGGGAAGAGCCGGCCGGCG | -1.14
CTGTGCAAGCCCCTGACCAAGGGTCATGCT | 3.17
GGTTCAAAGTGTAGCGCAGCCAGTTCTGGA | -1.02
TCTGCTGTTCTTGCCTGATAGCATCGTGGG | 1.41
CTTGGGGTAATCTCCCAATCTCGAGATCAT | -1.18
GAGAAAGAGGGGAAGGATGAATTTAAAAAA | -1.23
TAAAGTGTCTCCCTCTGCAGCAAAGTCCAG | 2.01
TCTTTATTCGTGAGTTTTCCATTTACCTCC | 1.01
ACAGCGTACTGTGCTAAAGAGTGATTGAAG | -1.13
CTCGCAGAAAGTGGCCGGACAGGTTGGGTC | 1
TCCTGTTTGTCAGCATCTTCACCGTAAAGC | 0.344
ACTGGTGTTGCTCAAATATTTGGAGAGCAG | 0.77
CTATGTGAGGAATCTAAGATAAGCAGCATT | -1.04
